Data as given in article PMC12136788.
This is one part of the list.

T1: UNK ZnF1-6 (called full-length) (human, UniProt Q9C0B0 30-357)
T1 sequence: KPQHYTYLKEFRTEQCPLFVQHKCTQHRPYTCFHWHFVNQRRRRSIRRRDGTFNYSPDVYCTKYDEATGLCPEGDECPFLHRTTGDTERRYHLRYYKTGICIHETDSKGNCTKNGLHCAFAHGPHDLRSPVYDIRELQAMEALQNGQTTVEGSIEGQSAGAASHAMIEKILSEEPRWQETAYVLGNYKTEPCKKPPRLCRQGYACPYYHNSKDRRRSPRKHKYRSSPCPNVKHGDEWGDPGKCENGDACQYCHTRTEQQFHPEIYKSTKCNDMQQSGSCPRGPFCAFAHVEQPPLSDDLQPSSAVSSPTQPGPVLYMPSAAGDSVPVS

B1: ENSG00000198589:be:win_4601|CDS|ENSG00000198589|bound_else_gene|NA|bound_elsewhere_windowed (ssRNA)
RNA: GGGAGUUCUACAGUCCGACGAUCUGGCAGUAGUAUACUUUAUCUCUGUUCUUAUGGUCUCCAAGUACAGAGACAUUUUGGAACCCCAAAAUGAAAGGCAUAGCCAGUCAUGUACAGAAACUGGCAGUGAAAAUGAGAAUGUAUCAACAGAGGAUUGAGCAUCA
B2: chr15:64682558:64682659:+|3pUTR|ENSG00000180357|unk|FALSE|bound_elsewhere (ssRNA)
RNA: GGGAGUUCUACAGUCCGACGAUCCACACUGGUCUUGCCUCUUCUUUUCCACUGCUUGGCUCUUAAGCCUCAGGCAGAUAAACUAGUAUUCCCCCCAGCUUGGGGAACCUUGGAGUCUGCCAGGUCACCUUAGGGCAAGGCCCACAACAGAGGAUUGAGCAUCA
B3: chr19:13098382:13098626:+|3pUTR|ENSG00000008441|msi1|total|mutant (ssRNA)
RNA: GGGAGUUCUACAGUCCGACGAUCACGCAGUAUAUACGAGUAUCUCUAUAUACCGUACUAAUGGAUUUGGUGUGCUUCCCCCUCCGCGUCCCCCUCCCUCUGCUCCUCCUCCUUCAGCCUGGUCUCCCCCUCUUCUCUGCCCUCCAACAGAGGAUUGAGCAUCA
B4: chr9:122916526:122916627:-|3pUTR|ENSG00000171448|unk|total|mutant (ssRNA)
RNA: GGGAGUUCUACAGUCCGACGAUCAUGCUUCCCCGCAUUGUGAUUUUUACAUGAUCCAGCCAAAGAGUACCAAUUCUAUGCAACCGUGAGACUCUACCCUGUCAACCAAACAGCAUUUUUUGGUAUUUUCUGUCAACAUCAUUUCAACAGAGGAUUGAGCAUCA
B5: chr1:202147012:202148699:-|three_prime_utr|ENSG00000143851|control|control|control (ssRNA)
RNA: GGGAGUUCUACAGUCCGACGAUCAAGUGGGCCGAGUGAUCUGGGGGUACCCCUUGGGUUGGUGUGGGGAAGGAGUGCCUCCUUAGUGGUGCUUGCAGUCACAGGAAGCAGCAGCAGUAAGGACAAGGGGCCGGAUUCCAGGUCCAACAGAGGAUUGAGCAUCA
B6: ENSG00000198589:be:win_3051|CDS|ENSG00000198589|bound_else_gene|NA|bound_elsewhere_windowed (ssRNA)
RNA: GGGAGUUCUACAGUCCGACGAUCAGAAAUGAAAGCUGAGCAAGAAAAUCAGGAGUUACCAGAUGAAGGCACUUUGGAAGAAACACUGACAAAUGAGACAAGGAAUGCAGAUGAUUUAGAAGUAUCUUCUGACAUAAUAGAAGCCAACAGAGGAUUGAGCAUCA
B7: chr2:210024032:210024201:-|CDS|ENSG00000144445|control|control|control (ssRNA)
RNA: GGGAGUUCUACAGUCCGACGAUCUACAGUAAAAAUGUUGAAGGACAGGACUUGCUUUUGAAAGAAUACCCUAAUAACUUCAGUAGCAGUCAGCAAUGUGCUGCUGCAAGUCCUCCUGGGCUUCCUUCAGAGAACCAGGAUCUGCAACAGAGGAUUGAGCAUCA
B8: chr7:135927258:135927359:-|3pUTR|ENSG00000105887|msi1_unk|total|mutant (ssRNA)
RNA: GGGAGUUCUACAGUCCGACGAUCCAGCUUCAGACUGUUAUCUACCGGCUUAUCGUUCAAAUACAGCACUUGAAUAUCCCAAGCCGUUCUUCUACGCACCGCUCACCUUUCUAAACCCAGUUAAGCAUGGAAGAGAGGCCGCCGCAACAGAGGAUUGAGCAUCA
B9: ENSG00000136451:be:win_551|CDS|ENSG00000136451|bound_else_gene|NA|bound_elsewhere_windowed (ssRNA)
RNA: GGGAGUUCUACAGUCCGACGAUCGAGAUGUGUACCAUCUCAAUCGACACAAGCUCUCCCAUUCAGAUGAGAAACCCUUUGAGUGUCCUAUUUGUAAUCAGCGCUUCAAGAGGAAGGACCGGAUGACUUACCAUGUGAGGUCUCCAACAGAGGAUUGAGCAUCA
B10: chr1:32680599:32680700:+|3pUTR|ENSG00000162521|msi1|FALSE|unique (ssRNA)
RNA: GGGAGUUCUACAGUCCGACGAUCAAGUGCUUAAAAUGGAAUAAAUUGCUUUUCUACAUAACCCCAUGCUGAUGGGUUUUAUUUAGUAUAAAACAUCCAUCAAACACCAGUCUCUGGCUUCUAGAAGAGUCCUUCAGAUGACAGCAACAGAGGAUUGAGCAUCA
B11: chr9:95099063:95099164:-|3pUTR|ENSG00000158169|unk|total|mutant (ssRNA)
RNA: GGGAGUUCUACAGUCCGACGAUCGAGCGCCCCUCCAACCAGGCUGUUAUUCCCCUGGACUCCGUGACAUCUGUGGAAUUUUUCCGCUCUUUAAAAUCUGUAAUUUGUUGUCUAUUUUUUCAUUCUAAAUAAAACUUCAGUUUGCAACAGAGGAUUGAGCAUCA
B12: ENSG00000146842:stop:overlap|stop_codon|ENSG00000146842|stop_codon|NA|stop_codon (ssRNA)
RNA: GGGAGUUCUACAGUCCGACGAUCUGCUUGGGAGAGUUAAUCUUGGUCUAUCUGGUGUGAAUAUAUUGUGGAUCUUUGGCGAGUAGCAAGUCAUAUAUUUAAUUCUGACAUUUAGACUAUUUCACUGAACCAGAAGUCGAAACUCAACAGAGGAUUGAGCAUCA
B13: chr1:37590682:37590793:-|CDS|ENSG00000134697|unk|FALSE|unique (ssRNA)
RNA: GGGAGUUCUACAGUCCGACGAUCAAGCAAAGCAAGUUACCAAUGUCUCUUCUCCAUGAUCGAAUCCGGCCUCAUGUAAGAUGUAGGAUAUCCCUGGUGAUGGAAUUUCCUGGGCAAACUCCAUGCAGAUCCCUCUCUAACAUACAACAGAGGAUUGAGCAUCA
B14: chr1:117869688:117869789:-|3pUTR|ENSG00000196505|msi1|total|mutant (ssRNA)
RNA: GGGAGUUCUACAGUCCGACGAUCACUCCAGCAGUGAGCAUUCCGAGAGUGUGUUGUCUUCCAGAGUCAUGAAUGAUUUUGUUCCGCUAUCAGGUCUACUACCUCUAAGGACAUUUCACCGCAGCAUCUCUUGAGUUGCCUGCACAACAGAGGAUUGAGCAUCA
B15: chr1:43623430:43623515:+|3pUTR|ENSG00000142949|msi1_unk|FALSE|overlapping (ssRNA)
RNA: GGGAGUUCUACAGUCCGACGAUCGGCGGGGAAGGGUGCAUAGCUGUUUUAGCUGAGGGACGUGGUGCCGACGUCCCCAAACCUAGCUAGGCUAAGUCAAGAUCAACAUUCCAGGGUUGGUAAUGUUGGAUGAUGAAACAUUCACAACAGAGGAUUGAGCAUCA
B16: chr13:20822168:20822271:-|CDS|ENSG00000132953|unk|FALSE|unique (ssRNA)
RNA: GGGAGUUCUACAGUCCGACGAUCUCGAAAAAUCAGAGAAGAUUCAGAUAUGGCACAAGAUUCUCUGCAGUGCCUUGCCCAGUUAGCUUCUCUUCAUGGACCCAUCUUCCCAGAUGAAGGAUCACAAGUUGAUUAUCUAGCACACAACAGAGGAUUGAGCAUCA
B17: chr11:46542767:46542868:-|CDS|ENSG00000110497|msi1|total|mutant (ssRNA)
RNA: GGGAGUUCUACAGUCCGACGAUCAACACGCUCCGCAACCUCAGUCUGGGUCCUACCCGCCGCUCUUUGGGAGGGCCUCUGUCCCGCCACCCUUCCCGGUAUCACCGAGAAACCGCUCCUGGGUUGACAGGAUCUGAGUGGACCCAACAGAGGAUUGAGCAUCA
B18: ENSG00000070961:be:win_5951|3pUTR|ENSG00000070961|bound_else_gene|NA|bound_elsewhere_windowed (ssRNA)
RNA: GGGAGUUCUACAGUCCGACGAUCACACCAACUCUAAUCCAUAAACGGGUCUUAUGACAUCUAUGAAGUAGUAGCAAGACAUGCUUAGUGUGUAUUUCUCUCUUUGAGACACUGUAAUUUCUACCAGAAAUUUCCAGAGCAUUACAACAGAGGAUUGAGCAUCA
B19: chr4:55904547:55904648:+|3pUTR|ENSG00000090989|msi1|FALSE|bound_elsewhere (ssRNA)
RNA: GGGAGUUCUACAGUCCGACGAUCAAAAUACCAAGCAACUGUUUUGAGAACCCAGACUUAAAAUUUUAUGUAUUAUUAAAUGUUAGAUAAAUGGGUAGUACCAUACUACAAAUAUUUAAAUGCAAAAUUACCAACCUAUAUAGCCAACAGAGGAUUGAGCAUCA
B20: chr18:46811193:46811294:-|3pUTR|ENSG00000078043|unk|FALSE|unique (ssRNA)
RNA: GGGAGUUCUACAGUCCGACGAUCUUUUUUUUCAUUUUUUUAAAAUGAUAUCUUACCUGAAACUACAAACGACAAAAGAGAAUUAGAAAUGUUUGAAUUAAAGUGAAGAAGGGUUGGGGGAGAUGGGCCUGAACCCACUUCCUGCAACAGAGGAUUGAGCAUCA
B21: chr16:67098774:67098826:+|CDS_3pUTR|ENSG00000067955|msi1_unk|total|mutant (ssRNA)
RNA: GGGAGUUCUACAGUCCGACGAUCAGACCCCCGUCCUGGUUCCAAUUCCGGUGGUGGUGAUGACCUCAAACUUCGUUAAUUAACCGCACAGCAGAUGUGUGCUGCCCAUCUUUACAUACACAUUGCUUCCCGUUGGCAGAAAUACAACAGAGGAUUGAGCAUCA
B22: chr15:64675409:64675510:+|CDS|ENSG00000180357|msi1|total|mutant (ssRNA)
RNA: GGGAGUUCUACAGUCCGACGAUCAACCAACAGCCCUGCAUACUCUGACAUCUCUGAUGCUGGGGAGGAUGGGGAGGGCAAGGCCGACAGUGUCAAAUCAAAGGACGCCGAACAGUUGGUUAAAGAAGGGGCUAAGAAAACUCUCAACAGAGGAUUGAGCAUCA

The binders below were run against T1, UNK ZnF1-6 (called full-length) (assay: nsRBNS (natural sequence RNA bind-n-seq); RBNS binding buffer (assumed for nsRBNS): 25 mM Tris pH 7.5, 150 mM KCl, 3 mM MgCl2, 0.01% Triton X-100, 500 ug/ml BSA, 20 U/ml SUPERase-In, 4 C; UNK is unkempt and MSI1 is Musashi-1; names of the RNAs are library labels; protein concentration not given here; high values mean tight binding).
B1 was tested, and the binding signal was 0.424 enrichment R.
B2 gave a binding signal of 0.511 enrichment R.
With B3 the binding signal was 1.21 enrichment R.
With B4 the binding signal was 0.263 enrichment R.
With B5 the binding signal was 1.11 enrichment R.
B6 showed a binding signal of 0.542 enrichment R.
B7 was tested, and the binding signal was 0.525 enrichment R.
B8 showed a binding signal of 0.465 enrichment R.
Work on B9 yielded a binding signal of 0.38 enrichment R.
B10 was tested, and the binding signal was 0.545 enrichment R.
B11 gave a binding signal of 0.753 enrichment R.
B12 showed a binding signal of 0.599 enrichment R.
Work on B13 yielded a binding signal of 0.537 enrichment R.
B14 gave a binding signal of 0.346 enrichment R.
Work on B15 yielded a binding signal of 0.948 enrichment R.
B16 was tested, and the binding signal was 0.43 enrichment R.
Binder B17 has a binding signal of 0.737 enrichment R.
B18 showed a binding signal of 0.444 enrichment R.
B19 was tested, and the binding signal was 1.75 enrichment R.
B20 was tested, and the binding signal was 0.87 enrichment R.
B21 was tested, and the binding signal was 0.68 enrichment R.
For B22, the binding signal was 0.717 enrichment R.
